PubChem BioAssay AID1460 (National Center for Advancing Translational Sciences (NCATS), 2008)
Screen size: about 270,000 compounds; about 5,800 (2.1%) were called active. The shares of active, inactive and inconclusive entries below differ from those in the screen. The call rests on the fitted dose curve; in most records, active means well fitted inhibition curve with a large enough effect; inconclusive means small, poorly fitted or top-dose-only effect; inactive means flat fitted curve, though single readings scatter. A potency beside an inconclusive call is a rough fit, not a confirmed value.

Target: Microtubule-associated protein tau (Homo sapiens) (UniProt P10636)
Experiment: qHTS for Inhibitors of Tau Fibril Formation, Thioflavin T Binding; further: nearly all actives have a fitted effect of over 55% in size
Settings: recombinant tau K18 P301L (four-repeat tau fragment), heparin-induced fibrillization, ThT fluorescence; series mostly up to 57.4 µM
Summary of the method: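 In this qHTS, human K18 P301L tau is incubated with compound and heparin for 6 hr at 37 C, and Thioflavin T fluorescence then reports fibril load.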
Potency means the concentration at half of the fitted maximal effect; tags describe the fitted curve by direction and shape.

UniProt P10636, sequence (P10636 whole entry, looked up): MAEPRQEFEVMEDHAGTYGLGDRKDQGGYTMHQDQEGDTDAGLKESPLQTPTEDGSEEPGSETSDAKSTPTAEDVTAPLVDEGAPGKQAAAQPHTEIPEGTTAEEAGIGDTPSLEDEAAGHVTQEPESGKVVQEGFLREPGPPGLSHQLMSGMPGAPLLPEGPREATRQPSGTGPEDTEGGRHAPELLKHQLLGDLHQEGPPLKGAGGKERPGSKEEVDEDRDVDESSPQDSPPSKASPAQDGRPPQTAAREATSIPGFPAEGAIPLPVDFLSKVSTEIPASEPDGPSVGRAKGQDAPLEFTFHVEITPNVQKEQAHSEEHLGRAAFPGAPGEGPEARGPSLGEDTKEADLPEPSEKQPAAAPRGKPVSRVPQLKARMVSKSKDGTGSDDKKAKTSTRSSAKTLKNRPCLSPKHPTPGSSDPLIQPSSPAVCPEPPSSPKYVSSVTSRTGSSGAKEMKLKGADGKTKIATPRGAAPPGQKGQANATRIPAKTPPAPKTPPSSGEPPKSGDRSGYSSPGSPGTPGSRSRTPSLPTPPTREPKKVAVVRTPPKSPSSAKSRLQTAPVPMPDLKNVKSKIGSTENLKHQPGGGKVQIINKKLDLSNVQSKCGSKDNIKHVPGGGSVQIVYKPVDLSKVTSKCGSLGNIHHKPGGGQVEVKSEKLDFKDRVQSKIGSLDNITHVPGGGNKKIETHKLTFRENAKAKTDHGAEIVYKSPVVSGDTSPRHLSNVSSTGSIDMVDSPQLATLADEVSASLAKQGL

| Compound | Potency |
| --- | --- |
| Cc1nc(NCc2ccccc2)c2nc(-c3ccccc3)n(C(C)CN(C)C)c2n1 (configuration not stated) | inactive |
| CCN(CC)C(=O)COC(=O)c1cc(-c2ccco2)nc2ccccc12 | inconclusive: 39.8 µM [inhibitor, single point] |
| CCOC(=O)c1nc(NCCc2ccccc2)sc1C | inconclusive: 11.2 µM [inhibitor, partial curve] |
| COc1ccc(-c2cc(-c3n[nH]c(=S)n3-c3cccc4ccccc34)[nH]n2)cc1 | inconclusive: 35.5 µM [inhibitor, single point] |
| COc1ccc(OC)c2c(C)cc(N3CCN(C(=O)c4ccc(C)cc4)CC3)nc12 | inconclusive: 12.6 µM [inhibitor, single point] |
| Nc1cc(=O)[nH]c(SCc2csc(-c3ccccc3)n2)n1 | inconclusive: 44.7 µM [inhibitor, single point] |
| O=C(CCS(=O)(=O)c1cccc2nsnc12)NC1CCCCC1 | inconclusive: 35.5 µM [inhibitor, single point] |
| O=[N+]([O-])c1ccc(N2CCN(S(=O)(=O)c3ccccc3[N+](=O)[O-])CC2)cc1NCc1cccnc1 | inconclusive: 7.94 µM [inhibitor, full curve] |
| COC(=O)c1ccc(NC(=O)Nc2ccc3c(c2)nc(C)n3C)cc1 | inconclusive: 3.55 µM [inhibitor, full curve] |
| Cn1nc([N+](=O)[O-])nc1S(C)(=O)=O | inconclusive: 5.62 µM [inhibitor, partial curve] |
| Cc1ccc(-c2nnc(N)s2)cc1 | inactive |
| COc1ccc(NS(=O)(=O)c2ccc(O)c(NC(=O)c3ccc(S(=O)(=O)N4CCCC4)cc3)c2)cc1 | inconclusive: 15.8 µM [inhibitor, partial curve] |
| Cc1cc(O)ccc1Nc1nc(-c2sc(N)nc2C)cs1 | active: 12.6 µM |
| CCc1cc2c3c(c1)/C(=C1/SC(N)=NC1=O)C(=O)N3C(C)(C)C=C2C | inconclusive: 3.98 µM [inhibitor, full curve] |
| O=S(=O)(N/N=C\c1ccc(-c2ccccc2Cl)o1)c1ccccc1 | inactive |
| C=CCn1cc(/C=N/NC(=O)COc2cccc3cccnc23)c2ccccc21 | inconclusive: 7.08 µM [inhibitor, partial curve] |
| COc1cc(/C=C(\C#N)C(=O)NC(C)C)cc(Cl)c1O | inconclusive: 14.1 µM [inhibitor, partial curve] |
| COc1ccccc1CCN=C(N)NS(=O)(=O)c1ccccc1 | inactive |
| Cn1ccnc1Sc1ccccc1[N+](=O)[O-] | inactive |
| CCOC(=O)c1ccc(NC(=O)c2ccc3c(c2)OCO3)cc1 | inconclusive: 1.78 µM [inhibitor, partial curve, poor fit] |
| CCOc1ccccc1C1C(C#N)=C(N)Oc2n[nH]c(CC)c21 (configuration not stated) | inactive |
| CCOC(=O)c1cc(NC(=O)c2ccc(C)cc2)c(=O)n2c1oc1ccccc12 | inactive |
| CCc1nnc(NC(=O)c2cc3ccccc3oc2=O)s1 | inconclusive: 10 µM [inhibitor, partial curve] |
| CCOc1cc(CNCCSc2nnnn2C)ccc1OCc1ccc(Cl)cc1Cl | inconclusive: 28.2 µM [inhibitor, partial curve] |

| Compound | Potency |
| --- | --- |
| c1ccc(OCc2nnc3sc(-c4cccs4)nn23)cc1 | inconclusive: 39.8 µM [inhibitor, single point] |
| O=C(CSC(=S)N1CCCCC1)c1c(F)cccc1F | inconclusive: 25.1 µM [inhibitor, partial curve] |
| CCOc1ccc(C2c3[nH]c4ccccc4c3CCN2C(=O)CSc2ccccc2)cc1 (configuration not stated) | inactive |
| CC1CCC(C(C)[C@H]2CCC3C4CC(=O)C5C[C@@H](O)CC[C@]5(C)C4CC[C@@]32C)=NC1 (some centres not stated) | inconclusive: 28.2 µM [inhibitor, single point] |
| COc1ccc(-n2c(=O)c3ccc(C(=O)NCc4ccc(C)cc4)cc3n(CC(=O)Nc3cccc(F)c3)c2=O)cc1 | inactive |
| CCOC(=O)N1CCN(C(=O)CSc2nnc(-c3ccc(C)c(C)c3)o2)CC1 | inconclusive: 20 µM [inhibitor, partial curve] |
| COc1cccc(C(=O)Nc2nc3c(s2)CCCC3)c1 | inconclusive: 31.6 µM [inhibitor, partial curve, poor fit] |
| CN(Cc1ccccc1)C(=O)C(=O)Nc1ccc2nc3n(c(=O)c2c1)CCCCC3 | inactive |
| CCOC(=O)c1ccccc1NC(=S)N1CC(C)CC(C)C1 (configuration not stated) | inactive |
| Oc1ccc(C=Nc2ccccc2-c2nc3ccccc3[nH]2)c(O)c1 | inconclusive: 11.2 µM [inhibitor, partial curve] |
| O=C(O)c1cccc(NC(=S)NCc2ccccc2)c1 | inactive |
| CN1CCN(CCC(=O)N/N=C/c2ccccc2F)CC1 | inactive |
| COc1cccc(N=Nc2c(N)[nH]n3c(=O)cc(-c4ccccc4)nc23)c1 | active: 3.98 µM |
| COc1cc2c(cc1NC(=O)COc1cc(C)cc(C)c1)oc1ccccc12 | inactive |
| CN1CCN(CC2(O)CCN(S(=O)(=O)c3ccc(Cl)cc3)CC2)CC1 | inactive |
| CCn1c2ccccc2c2cc(NC(=O)CN(C)CC(=O)Nc3ccc(N4CCOCC4)cc3)ccc21 | inconclusive: 6.31 µM [inhibitor, partial curve] |
| CCCCN1C(=O)C(O)=C(C(C)=O)C1c1ccc(OC)cc1OC (configuration not stated) | inconclusive: 39.8 µM [inhibitor, partial curve] |
| CCOC(=O)c1c(NC(=O)Nc2ccc(F)cc2)sc2c1CCN(C)C2 | inactive |
| CCc1c(CN2CCN(c3ccc(F)cc3)CC2)csc1C | inactive |
| NC(=O)/C(=C/c1ccco1)C(N)=S | inconclusive: 25.1 µM [inhibitor, partial curve] |
| O=C(OCC(=O)N1CCN(c2ccccc2)CC1)c1ccc2ccccc2n1 | inconclusive: 8.91 µM [inhibitor, partial curve] |
| COc1ccc(NC(=O)c2sc3nc(C)c(C(=O)Nc4ccc(C)cc4C)c(-c4sccc4C)c3c2N)cc1 | inactive |
| O=c1c(-c2ccccc2)nc(-c2ccccc2)cn1O | inconclusive: 20 µM [inhibitor, partial curve] |
